Screen size: about 360,000 compounds; about 7,500 (2.1%) were called active. Inconclusive results, whose numbers are uncertain, are shown with a selection of clear calls. Calls follow the shape of the dose curve; as a rule, active = well fitted cell-killing curve with a large enough effect; inconclusive = small, poorly fitted or top-dose-only effect, or effect the other way, or another doubt; inactive = no such curve, though single readings can be large or run the other way. Potencies of inconclusive entries are left out as doubtful fits.
experiment: qHTS for induction of synthetic lethality in tumor cells producing 2HG: qHTS for the HT-1080-IDH1KD cell line; settings: HT-1080 IDH1 knockdown viability, ATP luminescence, 48 h; activity, negative = toxicity: at 46.1 µM (top of the series) unless noted;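 as to activity, negative = toxicity: 0% = DMSO wells and -100% = cell-free medium wells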
Procedure, shortened: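 Viability of IDH1-knockdown HT-1080 fibrosarcoma cells was assessed by CellTiter-Glo after 48 h at 37 °C with titrated compound; concentration-effect curves were classified by fit quality and response size.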
Potency is read from the fitted curve at half-maximal effect; tags tell the direction and shape of the fitted curve.

SMILES | Potency | activity, negative = toxicity
Nc1ccccc1SC(CC(=O)c1ccccc1)c1cccc([N+](=O)[O-])c1 (stereo unspecified) | inconclusive [cytotoxic, single point] | 
COc1cccc(C(C)(O)c2nc(-c3ccc(OC)nc3)cs2)c1 (stereo unspecified) | inconclusive [cytotoxic, single point] | 
Cc1ccc(S(=O)(=O)N2CCOCC2)cc1C(=O)Nc1ccc(N2CCCCCC2)cc1 | inconclusive [cytotoxic, partial curve] | 
Cc1ccc(-c2nnc(NC(=O)c3ccc([N+](=O)[O-])o3)o2)c(C)c1 | inconclusive [cytotoxic, single point] | 
COc1cc(NC(=O)c2ccccc2F)ccc1NC(=O)c1cc2ccccc2o1 |  | inactive: -10.3%
COc1cc(OC)c2c(-c3ccccc3)cc(=O)oc2c1C(CCN1CCCC1)c1ccc2c(c1)OCO2 (stereo unspecified) | inconclusive [cytotoxic, partial curve] | 
O=C(CCNS(=O)(=O)c1ccc(Br)cc1)NCc1ccc(F)cc1 |  | inactive: 1.87%
CN(Cc1ccccc1)S(=O)(=O)c1ccc(NC(=O)c2ccccc2C(=O)O)cc1 |  | inactive: -0.0406%
COc1ccc(C(=O)OCc2c(C)noc2C)cc1 |  | inactive: 6.86%
COc1cc(-c2cc3nc(C)c(C)c(=O)n3[nH]2)cc(OC)c1OC | inconclusive [rising, single point] | 
CCOC(=O)C1=C(C)N=c2sc(=Cc3cc(Cl)c(OCC(=O)O)c(Cl)c3)c(=O)n2C1c1cccc(OC)c1 (stereo unspecified) | active: 20.6 µM | 
COc1cccc(N2CCN(C3CC(=O)N(c4ccc(C)c(Cl)c4)C3=O)CC2)c1 (stereo unspecified) | inconclusive [cytotoxic, single point] | 
COc1ccc(C(=O)Nc2ccc(N3CCC(C)CC3)cc2)cc1Br | inconclusive [rising, partial curve] | 
COc1ccc2oc(=O)cc(CN3CCN(Cc4ccc(OC)c(OC)c4OC)CC3)c2c1 |  | inactive: -13.5%
COc1ccc(CCNC(=O)c2ccc(CSc3ccc(Cl)cc3)o2)cc1OC | inconclusive [cytotoxic, single point] | 
COc1ccc(/C=N\n2nnc3ccccc32)cc1 | inconclusive [cytotoxic, single point] | 
Cc1cccc(COC[C@H](CC(C)C)N2CCN(C(=O)c3ccc(C(F)(F)F)cc3)CCC2=O)c1 | inconclusive [cytotoxic, single point] | 
CCCCc1ccc(N/C(N)=N/c2nc(C)cc(C)n2)cc1 | active: 20.6 µM | 
c1coc(CNc2ncnc3ccccc23)c1 | active: 20.6 µM | 
Oc1c(C(c2ccccn2)N2CCOCC2)ccc2cccnc12 (stereo unspecified) | active: 0.251 µM | 
CCOC(=O)[C@]12CCC=C1N(Cc1ccc(Cl)cc1Cl)C(=O)[C@H](CC(=O)NCCc1ccccc1OC)C2 | inconclusive [cytotoxic, single point] | 
CN(C)c1ccccc1-c1cc(NC=O)c2ncc(-c3cccc(C(F)(F)F)c3)n2c1 | active: 29.1 µM | 
O=C(C1CCCN(S(=O)(=O)c2cccc3nonc23)C1)N1CCC(Cc2ccccc2)CC1 (stereo unspecified) |  | inactive: -21.7%
O=C(c1cnc2ccc3ccccc3c2c1)c1cc(F)ccc1O | active: 8.2 µM | 

SMILES | Potency | activity, negative = toxicity
Nc1cccc2c1C(=O)N(C(=O)/C=C/c1cccc(F)c1)C2=O | active: 16.4 µM | 
C/C(=N\Nc1nc2ccc(Cl)cc2o1)c1ccccc1 |  | inactive: -4.78%
COc1cc(/C=N/NC(=O)CC2(C)OCCCO2)ccc1OCc1ccc(Cl)cc1Cl |  | inconclusive: -30.4% [cytotoxic]
CCOc1ccc(NC(=O)CSc2nnc(NC(=O)C3CC3)s2)cc1 |  | inactive: 14.7%
COc1cc(Cl)ccc1OC1(C)CCN(Cc2ccc3ccccc3c2)C1 (stereo unspecified) | inconclusive [cytotoxic, single point] | 
N=C(N)SCc1cn(-c2ccccc2)nc1-c1ccc(Br)cc1 | active: 5.17 µM | 
Fc1ccc(N2CCN(Cc3cn[nH]c3-c3ccccc3)CC2)cc1 |  | inactive: -10.9%
Cc1ccc(NC(=O)c2c(C(F)(F)F)nn(C)c2SCc2ccc(Cl)cc2)cc1C | inconclusive [cytotoxic, single point] | 
Cc1cc(C)cc(C(O)c2ncc(-c3ccc4ccccc4c3)[nH]2)c1 (stereo unspecified) | inconclusive [cytotoxic, single point] | 
Cc1nc2ccccc2c(=O)n1/N=C/c1ccc(F)cc1 | inconclusive [rising, partial curve] | 
CC(NC(=O)CCSCCC(=O)NC(C)c1ccccc1)c1ccccc1 (stereo unspecified) |  | inconclusive: 31.8%
CC1CCC2C(=O)N(c3ccc(C(=O)Oc4cccc5cccnc45)cc3)C(=O)C2C1 (stereo unspecified) | inconclusive [cytotoxic, single point] | 
O=C(CSc1ccc(Cl)cc1)N1CCN(c2ccc(Cl)cc2[N+](=O)[O-])CC1 | inconclusive [cytotoxic, single point] | 
CC(C)(C)c1ccc(C(=O)Nc2ccc(S(N)(=O)=O)cc2)cc1 | inconclusive [cytotoxic, partial curve] | 
CC(C)(CN1CCNCC1)NS(=O)(=O)c1ccc(Cl)cc1 | inconclusive [cytotoxic, single point] | 
Cc1ccccc1OCC(O)CNC1CCC(NCC(O)COc2ccccc2C)CC1 (stereo unspecified) | active: 2.31 µM | 
Cc1ccc(Oc2nnc(-c3ccccc3)c3ccccc23)cc1 | inconclusive [cytotoxic, single point] | 
CC1(C)C=C(c2ccc(O)cc2)CC(C)(C)N1 |  | inactive: 0%
c1ccc(Cn2ncc3c(N4CCN(C(c5ccccc5)c5ccccc5)CC4)ncnc32)cc1 |  | inactive: -19.1%
CCOC(=O)C1=CCN(S(=O)(=O)c2cccc(Cl)c2)C1c1ccc(Br)cc1 (stereo unspecified) | inconclusive [cytotoxic, single point] | 
O=C(c1ccc2c3c(cccc13)CC2)C1CCCN(Cc2ccncc2)C1 (stereo unspecified) |  | inactive: -6.13%
Cc1ccccc1OCCc1c(C)[nH]c(=S)[nH]c1=O | active: 2.06 µM | 
COc1cccc(C2C3=C(CCCC3=O)Nc3nc(-c4cc(OC)c(OC)c(OC)c4)nn32)c1 (stereo unspecified) | inconclusive [cytotoxic, partial curve] | 
N#Cc1sc(NCc2cccc(Cl)c2)nc1Cl | inconclusive [cytotoxic, partial curve] | 

SMILES | Potency | activity, negative = toxicity
CC(NC(=O)CC(c1ccccc1)c1cc(Cl)ccc1O)c1ccccc1 (stereo unspecified) | inconclusive [cytotoxic, single point] | 
CCC(=O)NC(c1ccc(OC)cc1)c1cc(Cl)c2cccnc2c1O (stereo unspecified) | inconclusive [cytotoxic, full curve] | 
CCc1ccc(/C=C/c2c[nH]c3ccccc23)[n+](CC)c1 | inconclusive [cytotoxic, single point] | 
COC(=O)NCC(c1cccnc1)N1CCN(c2ccccc2F)CC1 (stereo unspecified) |  | inactive: 1.49%
O=C(/C=C/c1ccc2c(c1)OCCCO2)c1ccc2ccccc2c1O | inconclusive [cytotoxic, single point] | 
COc1ccc(-c2ccc(-c3noc(-c4ccccc4OC)n3)c(OC)n2)cc1 | inconclusive [cytotoxic, single point] | 
COc1cc(Br)cc(CN2CCN(C=O)CC2)c1O |  | inactive: -16.2%
Cc1cc(C)c2nc(C)cc(N/N=C/c3ccc(O)cc3)c2c1 | active: 5.8 µM | 
COC(=O)c1cc(C(=O)c2c(C)cc3ccccn23)cc([N+](=O)[O-])c1 | inconclusive [cytotoxic, single point] | 
Cc1ccc(-n2cc(CNCCc3cscn3)c(-c3ccc(F)cc3)n2)cc1 | active: 20.6 µM | 
O=[N+]([O-])c1cc(Cl)cc(/C=N/NC(=S)Nc2ccc(S(=O)(=O)N3CCOCC3)cc2)c1O | active: 3.66 µM | 
COC(=O)[C@H](Cc1ccccc1)NC(=O)NCCC1=CCCCC1 | inconclusive [cytotoxic, single point] | 
Oc1ccc(/C(Cc2ccc3ccccc3n2)=N\Nc2ccccc2)c(O)c1 | inconclusive [cytotoxic, single point] | 
CN(C)Cc1csc(NC(=O)Nc2ccccc2Oc2ccccc2)n1 | inconclusive [cytotoxic, single point] | 
Cc1cc(C)c2ccc(NN)nc2c1O | inconclusive [cytotoxic, single point] | 
Cc1ccc(CN2C(=O)c3ccccc3Sc3ccc(C(=O)NCCN4CCOCC4)cc32)cc1 | active: 9.2 µM | 
CCN(c1ccccc1)c1nc(C#N)nc(N(CC)c2ccccc2)n1 | inconclusive [cytotoxic, single point] | 
Oc1ccc(Cl)cc1-c1cc(-c2ccco2)[nH]n1 | inconclusive [cytotoxic, single point] | 
CCN1Cc2c(/C=C/c3ccccc3)nc3ccc(OC)cc3c2N(c2cccc(Cl)c2)C1 | inconclusive [cytotoxic, single point] | 
COCCNC(=O)c1cccc(OC2CCN(Cc3ccc(C(C)C)cc3)CC2)c1 | inconclusive [cytotoxic, single point] | 
Cc1cccc(N2CCN(CCCNC(=O)c3ccc(NC(=O)C4=CSCCO4)cc3)CC2C)c1 (stereo unspecified) | active: 20.6 µM | 
Cc1cccc(NC(=O)Cn2c(O)c(N=NC(=O)c3ccccc3O)c3ccccc32)c1 | inconclusive [cytotoxic, partial curve] | 
Cc1cccc(C2c3[nH]c4ccccc4c3CCN2C(=O)Cc2nc(-c3ccccc3)n[nH]2)n1 (stereo unspecified) | inconclusive [cytotoxic, single point] | 
